From the supplement of paper PMC11417369
The other results are listed elsewhere or left out.

The sequences below were run on PfHDP1 homeodomain (GST-tagged) (assay: gcPBM binding intensity (ln(normalized median fluorescence intensity)); higher = stronger DNA binding).
Outline: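 The binding buffer was 1× PBS containing 1% milk, 0.2 mg/ml BSA, 0.5% salmon testes DNA and 0.03% Triton X-100. In it, GST-tagged P. falciparum DNA-binding domains expressed in E. coli were applied for 1 h to an Agilent 4 × 180k array of primer-extended double-stranded 36-bp intergenic genomic probes plus negative controls. Binding intensity, read with Alexa488 anti-GST antibody and a 488 nm scan, is the highest Masliner-normalised natural-log median intensity across replicate spots of either probe orientation.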

| Sequence | gcPBM binding intensity (ln) |
| --- | --- |
| CAATTTTCTAATGAAACATGCAAAATAAAATTTTAT [TGCATGCA_site13] | 6.48 |
| AAAAAAAAGGAAAATAAAAATAAAAAAAAATAATAA [XGTACX_negctrl_site601] | 6.23 |
| TGAGAAAAAAAGAATTGTACATATAAAATATAACAA [XGTACX_site3500] | 5.87 |
| AATAAAAAGAAACACACACACACACCCATATATATA [CACACA_site3589] | 7.1 |
| AAAGATACTTTCCTCAAACACACAAAACTATACAAC [CACACA_site1475] | 6.94 |
| TTATCACATTATTGCACACACATAAAGAAAAAAATA [CACACA_site2841] | 9.63 |
| ATATAAGAACAAAATTGTACATAAATATTTATATAA [XGTACX_site7404] | 6.54 |
| TCATACATTTTCCTTGCACACATTTATAATTAATGG [CACACA_site4511] | 8.55 |
| AACAAACACAGACACACACACACACTAATATGATTA [CACACA_site8770] | 6.8 |
| ATATACTATTATGTGTGTACATAATAATTTATTATA [XGTACX_site3776] | 6.42 |
| TAAAACAAAAAAAAGATGCACTATTTATTTTATTAT | 7.73 |
| TTTAAAAAAAAAAAAAAAAAAAAAAAAAAAAATTTG [CACACA_negctrl_site1235] | 5.63 |
| AAAAAAATATATATATATATATATATATTATATATG [GTGCAC_negctrl_site654] | 6.87 |
| TTTTATTATTTTTGTTGTACAGTATACTGTATGATT [XGTACX_site5359] | 6.82 |
| TAATTATAGGTATACACACACATACATTTACATAAC [CACACA_site7509] | 7.05 |
| TTTTTTTTATGTATCACACATAATTTTTTATTATGA [CACACA_site5534] | 6.44 |
| AGAAAGAAAATATATACACACAAAAAAAAATATATA [CACACA_site1412] | 6.61 |
| CATCCACAAATATGTACACACATATATAAATATGTA [CACACA_site7407] | 6.73 |
| ATAATAACAAGGCGCTGTACTGTACCGTTTTTCATA [XGTACX_site6135] | 6.6 |
| GATATATCCTATGTTATTTTTATGGTGTAATTTAGT [XGTACX_negctrl_site112] | 6.74 |
| TCACATATATATTAATGTACATATATTTTTTATGTA [XGTACX_site5125] | 6.22 |
| GACAACTCTTTTCATACACACAAAAAAAAAAAAATA [CACACA_site2361] | 6.44 |

| Sequence | gcPBM binding intensity (ln) |
| --- | --- |
| CAATGTTAACATATTACACACATATGTATATATAAT [CACACA_site8878] | 6.8 |
| ATTTTTTCATATTCTACACACGTGAACAAATGAGTC [CACACA_site5635] | 6.68 |
| TACATACATACATACACACACATATATATATATATA [CACACA_site1944] | 9.5 |
| AACAGACAAAGACACACACACATACATACATACATA [CACACA_site6351] | 7.06 |
| TATCATATTTTTATATGTACATAACATAAAAAAAAA [XGTACX_site2152] | 6 |
| TGATTTGTGCCGATTTGTACACATTTATATATATAT [XGTACX_site2154] | 8.3 |
| ATATGCTATTTACTAGTGCAAAATATTTAAAATATG [GTGCAC_site9517] | 9.99 |
| TAAAAAAAAAAAAAAAGTACAAAAAAAATATTTTTT [XGTACX_site7941] | 6.05 |
| TTAATATAAGCAAATACACACACACCGATATATATA [CACACA_site9269] | 7.19 |
| GTTGCACAATGTTACACACACAATATAGATCGTTAA [CACACA_site6717] | 9.91 |
| TTTATATGGATTTTTTTTTAATATTTCTTTTAATTT [TGCATGCA_negctrl_site361] | 5.96 |
| ATAAAAAAAAAAAATACACACATATATTTATTTATA [CACACA_site6903] | 6.17 |
| ATAAACAGAAAAAAAAAAAAAAAAAAAAAAAAAAAA [CACACA_negctrl_site143] | 6.12 |
| TTTTTTTTCTCACAAAAAATAATTAACAAAAAGGAA [XGTACX_negctrl_site154] | 6.47 |
| GGCATGACTATCTGCACACATAAAAATAAGAAATAC [CACACA_site841] | 8.57 |
| GATTTATACAAATATGTACACACTAATTATATATTA [CACACA_site8045] | 6.9 |
| TTATTGTACTTGCTCGCATGCAATAAAAATATATTA [TGCATGCA_site580] | 7.19 |
| AAATAATATTTTACATGTACATAATAATTATTGGAT [XGTACX_site2783] | 6.57 |
| ATAAAAATAAAAAACTGTACATACAAGATGTTACAG [XGTACX_site6690] | 6.02 |
| ATGCTTCCTTAGGAATGTACACACATATATAATATG [XGTACX_site873] | 6.67 |
| TAAATATTTAAATATTGTACTAGGTATAATTGAATA [XGTACX_site3604] | 6.48 |
| ATAAGAAGAAGAAAAACACACATATGTAGATATATA [CACACA_site7469] | 6.83 |
